Results as given in publication PMC4336329 (PLoS ONE, 2015).
Screen size: about 310,000 compounds; about 14,000 (4.5%) showed an effect of 50% or more. Effects have a minus sign here. The list shows a part of the results.

Molecular target: human ether-à-go-go-related gene (hERG) potassium channel (human, UniProt Q12809)
Assay: primary screen, population patch clamp on CHO cells stably expressing hERG
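Further: peak tail current of the secondary pulse compared with the same well before compound.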

Chain of human ether-à-go-go-related gene (hERG) potassium channel (Q12809 whole entry, looked up): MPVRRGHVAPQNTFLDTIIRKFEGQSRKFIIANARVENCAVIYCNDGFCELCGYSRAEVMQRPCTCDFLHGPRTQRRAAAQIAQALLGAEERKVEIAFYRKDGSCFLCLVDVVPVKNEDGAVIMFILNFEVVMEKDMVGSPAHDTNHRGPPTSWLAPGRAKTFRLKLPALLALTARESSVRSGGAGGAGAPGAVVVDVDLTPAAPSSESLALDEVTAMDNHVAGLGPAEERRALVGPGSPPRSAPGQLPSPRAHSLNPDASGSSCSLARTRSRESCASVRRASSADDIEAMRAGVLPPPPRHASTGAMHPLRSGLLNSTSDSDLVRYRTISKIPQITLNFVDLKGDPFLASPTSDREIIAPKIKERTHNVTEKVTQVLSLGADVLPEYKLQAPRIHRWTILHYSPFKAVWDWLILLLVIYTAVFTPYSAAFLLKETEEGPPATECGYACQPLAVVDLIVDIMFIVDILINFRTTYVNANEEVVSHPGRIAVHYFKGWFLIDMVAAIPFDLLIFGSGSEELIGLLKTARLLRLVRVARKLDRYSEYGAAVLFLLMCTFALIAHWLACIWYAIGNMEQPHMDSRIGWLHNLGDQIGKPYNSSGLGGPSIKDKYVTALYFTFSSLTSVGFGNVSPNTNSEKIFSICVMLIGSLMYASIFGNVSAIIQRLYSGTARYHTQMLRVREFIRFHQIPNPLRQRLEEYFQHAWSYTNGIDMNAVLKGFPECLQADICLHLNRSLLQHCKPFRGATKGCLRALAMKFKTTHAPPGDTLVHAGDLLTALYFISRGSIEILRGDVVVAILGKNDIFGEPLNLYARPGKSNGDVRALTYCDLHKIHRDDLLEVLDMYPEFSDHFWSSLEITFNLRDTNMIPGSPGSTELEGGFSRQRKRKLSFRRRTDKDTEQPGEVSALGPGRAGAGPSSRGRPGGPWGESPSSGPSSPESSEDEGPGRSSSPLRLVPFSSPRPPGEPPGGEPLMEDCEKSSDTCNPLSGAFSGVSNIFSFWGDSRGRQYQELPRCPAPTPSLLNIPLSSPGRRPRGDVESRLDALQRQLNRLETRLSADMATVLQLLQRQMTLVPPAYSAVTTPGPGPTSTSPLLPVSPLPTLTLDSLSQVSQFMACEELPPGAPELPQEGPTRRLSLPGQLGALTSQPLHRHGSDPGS

Structure (SMILES) | hERG current change (%, negative = inhibition) at 10uM
C/C(=N\NC(=O)c1nnn(-c2nonc2N)c1CN(C)C)c1ccco1 | -33.2%
CCOC(=O)C1CCCN(c2cc(C)nc3cc(-c4ccc(Cl)cc4)nn23)C1 (centres unmarked) | 9.61%
COc1ccc(S(=O)(=O)N2CCCCC2)cc1-n1cnnn1 | 6.64%
NC(=O)C1CCN(C(=O)c2cnn(-c3ccccc3)c2NC(=O)c2cccc(F)c2)CC1 | 15.7%
CN(C)S(=O)(=O)c1ccc(N2CCCC2)c(C(=O)Nc2ccccc2F)c1 | -14.7%
C/C(=N/NC(=O)c1cccs1)c1ccc(NC(=O)COc2ccc(Cl)cc2)cc1 | 23.5%
CN(C)S(=O)(=O)c1cc(NC(=O)CN2CCCc3ccccc32)ccc1Cl | -3.22%
Cc1cc2oc(=O)cc(Cn3ncc(Cl)c(Cl)c3=O)c2cc1Cl | 1.74%
Cc1ccc(CNC(=O)CCCn2c(=O)c3ccccc3n(CC(=O)NCc3ccco3)c2=O)cc1 | -12.2%
COc1cccc(COCC(O)Cn2cnc3cc(C)c(C)cc32)c1.O=C(O)C(=O)O (centres unmarked) | 0.607%
Cc1[nH]n(-c2ccccc2)c(=O)c1C=Nc1cnc2ccccc2c1 | -8.67%
O=C(c1ccccc1F)N1CCc2ccccc21 | -7.14%
CCCCOc1ccc(S(N)(=O)=O)cc1 | -11.6%
CCOc1ccccc1NC(=O)Nc1cccc(NC(C)=O)c1 | 11.6%
CCS(=O)(=O)c1ccc2oc(Nc3ccccc3Br)nc2c1 | -17.3%
COc1ccc(OC)c(S(=O)(=O)NCC(=O)O)c1 | 9.99%
COc1ccc2c(c1)Cc1sc(NC(=O)c3ccco3)nc1-2 | 4.73%
Cc1cccc(-c2noc(CCCC(=O)Nc3ccc(C(N)=O)cc3)n2)c1 | 9.19%
Cc1c(Br)c([N+](=O)[O-])nn1CC(=O)Nc1ccc(C(C)C)cc1 | 11.8%

Structure (SMILES) | hERG current change (%, negative = inhibition) at 10uM
c1ccc(CSc2ncnc3ccccc23)cc1 | -42.1%
CCOC(=O)c1[nH]c(C)c(C(=O)NCCCN2CCOCC2)c1C | -11.2%
O=C(NCCn1c(-c2ccncc2)nc2ccccc21)[C@H]1CCCN1c1nc(CN2CCCCC2)cs1 | 2.78%
CC(=O)N1CCc2cc(S(=O)(=O)NCCC(=O)Nc3ccc4c(c3)OCCO4)ccc21 | 9.08%
COc1ccc(OCC(=O)O/N=C(\N)c2ccc(OC)c(OC)c2)cc1 | 7.84%
CC1(C(=O)O)COC(c2ccc([N+](=O)[O-])cc2)OC1 (centres unmarked) | 1.45%
C=CCNC(=O)/C(=C\C=C\c1ccccc1)NC(=O)c1ccccc1Cl | -49.7%
C/C(=N\NC(=O)c1ccc(C)cc1C)c1ccc2c(c1)Nc1ccccc1S2 | 14.4%
Cc1cc(C(=O)NC2CCCN(Cc3ccc(Cl)cc3)C2)c(C)o1 (centres unmarked) | -11.9%
OCCN(Cc1ccccc1)Cc1ccc(Cl)cc1 | -73%
O=c1c2[nH]c3ccc(F)cc3c2ncn1CCCN1CCOCC1 | -31.3%
Cc1ccc(S(=O)(=O)NCCc2cn3nc(C)c(C)nc3n2)cc1C | 11%
O=C(NN1CCOCC1)c1cccc(Br)c1 | 23.3%
COc1ccc(-c2csc3ncnc(N4CCN(S(=O)(=O)c5ccc(C)c(C)c5)CC4)c23)cc1 | 4.46%
CCOc1ccc(NC(=O)CN2CCCC2c2cccs2)cc1S(=O)(=O)N1CCCC1 (centres unmarked) | -19.8%
CCOc1ccc(Br)cc1/C(C)=N\NC1=NCCN1.Cl | -48.6%
O=C(Nc1cccc(S(=O)(=O)N2CCCC2)c1)c1cc(-c2ccccn2)nc2ccccc12 | 4.71%
O=C(c1cccc(C(F)(F)F)c1)C1CCCN(C(=O)Cn2cncn2)C1 (centres unmarked) | -2.57%
O=C(Nc1ccccc1C(F)(F)F)c1cc2ncc(CCCl)cn2n1 | -34.9%

Structure (SMILES) | hERG current change (%, negative = inhibition) at 10uM
CCOC(=O)C1CCN(C(=O)c2c(C)oc3c2C(=O)c2ccccc2C3=O)CC1 | -27.5%
CC(=O)c1sc(N/N=C/c2cccc(O)c2)nc1C | 14.2%
CN1C(=O)C(CC(N)=O)N(NC(=O)c2ccc(Cl)cc2)C1=S (centres unmarked) | 22.5%
Cc1ccc(C)c(NC(=O)CN(C)C(=O)c2ccccc2OCc2ccc(Cl)cc2)c1 | -2.36%
O=C(COC(=O)c1cccc(C(F)(F)F)c1)NCc1ccc(Cl)cc1 | 0.934%
Nc1c(Cl)cc(Cl)cc1C(=O)OCC(=O)N1CCOCC1 | 8.63%
CC(=O)N1CCOc2ccc(S(=O)(=O)NC(C)c3ccccc3)cc21 (centres unmarked) | 8.58%
COc1cccc(OC)c1C(=O)Nc1ccccc1N1CCCC1 | -74.6%
COCCNc1nc2c(c(=O)n(Cc3cccc(Br)c3)c(=O)n2C)n1C | -4.02%
CCc1ccc2nc3nc(C)cc(C)c3c(N)c2c1 | 1.12%
Cc1cccc(NC(=S)NNC(=O)CCn2nc(C)c([N+](=O)[O-])c2C)c1 | 9.61%
Cc1cc(NC(=O)C2CC(=O)N(c3ccccc3Cl)C2)no1 (centres unmarked) | 14.6%
O=C1Cc2ccccc2C(=O)N1OCc1ccc(Cl)cc1 | 10.5%
Cc1cc(/C=C2\C(=O)NC(=O)N(Cc3ccccc3)C2=O)c(C)n1-c1ccc(Cl)c(C(=O)O)c1 | 1.67%
CCOC(=O)c1cc2ccccc2n1CC(=O)c1ccccc1 | 14.3%
CCN(CC(=O)Nc1ccc(C(=O)OC)cc1)C1CCCCC1 | -1.85%
CCCN(CC(=O)Nc1ccccc1OC)C(=O)c1ccc2ncsc2c1 | -26.4%
Cc1ccc(S(=O)(=O)N2CCN(S(=O)(=O)N3CCC(C)CC3)CC2)c(C)c1 | 5.91%
